These are yes or no findings as the source states them, for the method shown. Binding seen in cells or lysates may run through a third protein. Some results given as binding are weak or reduced against the parent protein; the word gives no strength.
Experiments:
Assay in all cases: co-IP; A549 cell lysates (parental, stably expressing GFP-Scrib or Neon-Lgl1 forms, or tet-shLgl1 without Dox) in NP-40 buffer (20 mM Tris pH 8, 150-200 mM NaCl, 0.5 mM EDTA, 1% NP-40, 1 mM DTT, 5% glycerol); antibody 2 h at 4°C, protein A/G beads, three washes, Western blot; IgG as negative …
[1] = target: T1, Lgl1 (endogenous) (human (endogenous in A549)) (UniProt Q15334)
T1 sequence: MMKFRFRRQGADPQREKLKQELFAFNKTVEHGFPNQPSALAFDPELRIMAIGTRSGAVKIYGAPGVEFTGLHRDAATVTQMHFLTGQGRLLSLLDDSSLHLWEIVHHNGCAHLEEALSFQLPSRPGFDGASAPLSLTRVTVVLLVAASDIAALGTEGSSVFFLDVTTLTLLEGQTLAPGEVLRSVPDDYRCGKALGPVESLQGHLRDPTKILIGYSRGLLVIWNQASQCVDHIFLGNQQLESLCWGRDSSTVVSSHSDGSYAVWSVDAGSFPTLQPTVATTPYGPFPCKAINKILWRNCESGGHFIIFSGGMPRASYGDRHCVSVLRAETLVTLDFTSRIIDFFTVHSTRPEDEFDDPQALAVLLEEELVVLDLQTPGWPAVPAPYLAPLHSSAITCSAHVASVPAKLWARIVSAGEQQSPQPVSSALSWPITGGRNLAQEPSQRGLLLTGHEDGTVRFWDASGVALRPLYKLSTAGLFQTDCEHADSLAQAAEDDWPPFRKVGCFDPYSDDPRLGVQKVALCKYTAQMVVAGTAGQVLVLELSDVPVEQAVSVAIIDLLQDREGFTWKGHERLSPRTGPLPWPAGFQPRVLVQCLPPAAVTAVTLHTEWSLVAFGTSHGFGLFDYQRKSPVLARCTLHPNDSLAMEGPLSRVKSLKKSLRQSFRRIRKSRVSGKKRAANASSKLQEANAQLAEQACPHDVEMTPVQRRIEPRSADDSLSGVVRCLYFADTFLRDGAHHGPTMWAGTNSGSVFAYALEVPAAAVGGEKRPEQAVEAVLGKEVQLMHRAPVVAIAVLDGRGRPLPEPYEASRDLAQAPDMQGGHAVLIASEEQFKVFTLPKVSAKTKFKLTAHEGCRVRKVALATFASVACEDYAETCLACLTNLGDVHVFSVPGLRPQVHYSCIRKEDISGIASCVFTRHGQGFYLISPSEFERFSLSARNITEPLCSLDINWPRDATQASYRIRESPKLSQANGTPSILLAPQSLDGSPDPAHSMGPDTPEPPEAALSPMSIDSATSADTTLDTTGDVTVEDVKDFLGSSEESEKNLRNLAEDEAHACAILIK

Amino acid sequences for entries named in this document (tags omitted).
UniProt Q14160: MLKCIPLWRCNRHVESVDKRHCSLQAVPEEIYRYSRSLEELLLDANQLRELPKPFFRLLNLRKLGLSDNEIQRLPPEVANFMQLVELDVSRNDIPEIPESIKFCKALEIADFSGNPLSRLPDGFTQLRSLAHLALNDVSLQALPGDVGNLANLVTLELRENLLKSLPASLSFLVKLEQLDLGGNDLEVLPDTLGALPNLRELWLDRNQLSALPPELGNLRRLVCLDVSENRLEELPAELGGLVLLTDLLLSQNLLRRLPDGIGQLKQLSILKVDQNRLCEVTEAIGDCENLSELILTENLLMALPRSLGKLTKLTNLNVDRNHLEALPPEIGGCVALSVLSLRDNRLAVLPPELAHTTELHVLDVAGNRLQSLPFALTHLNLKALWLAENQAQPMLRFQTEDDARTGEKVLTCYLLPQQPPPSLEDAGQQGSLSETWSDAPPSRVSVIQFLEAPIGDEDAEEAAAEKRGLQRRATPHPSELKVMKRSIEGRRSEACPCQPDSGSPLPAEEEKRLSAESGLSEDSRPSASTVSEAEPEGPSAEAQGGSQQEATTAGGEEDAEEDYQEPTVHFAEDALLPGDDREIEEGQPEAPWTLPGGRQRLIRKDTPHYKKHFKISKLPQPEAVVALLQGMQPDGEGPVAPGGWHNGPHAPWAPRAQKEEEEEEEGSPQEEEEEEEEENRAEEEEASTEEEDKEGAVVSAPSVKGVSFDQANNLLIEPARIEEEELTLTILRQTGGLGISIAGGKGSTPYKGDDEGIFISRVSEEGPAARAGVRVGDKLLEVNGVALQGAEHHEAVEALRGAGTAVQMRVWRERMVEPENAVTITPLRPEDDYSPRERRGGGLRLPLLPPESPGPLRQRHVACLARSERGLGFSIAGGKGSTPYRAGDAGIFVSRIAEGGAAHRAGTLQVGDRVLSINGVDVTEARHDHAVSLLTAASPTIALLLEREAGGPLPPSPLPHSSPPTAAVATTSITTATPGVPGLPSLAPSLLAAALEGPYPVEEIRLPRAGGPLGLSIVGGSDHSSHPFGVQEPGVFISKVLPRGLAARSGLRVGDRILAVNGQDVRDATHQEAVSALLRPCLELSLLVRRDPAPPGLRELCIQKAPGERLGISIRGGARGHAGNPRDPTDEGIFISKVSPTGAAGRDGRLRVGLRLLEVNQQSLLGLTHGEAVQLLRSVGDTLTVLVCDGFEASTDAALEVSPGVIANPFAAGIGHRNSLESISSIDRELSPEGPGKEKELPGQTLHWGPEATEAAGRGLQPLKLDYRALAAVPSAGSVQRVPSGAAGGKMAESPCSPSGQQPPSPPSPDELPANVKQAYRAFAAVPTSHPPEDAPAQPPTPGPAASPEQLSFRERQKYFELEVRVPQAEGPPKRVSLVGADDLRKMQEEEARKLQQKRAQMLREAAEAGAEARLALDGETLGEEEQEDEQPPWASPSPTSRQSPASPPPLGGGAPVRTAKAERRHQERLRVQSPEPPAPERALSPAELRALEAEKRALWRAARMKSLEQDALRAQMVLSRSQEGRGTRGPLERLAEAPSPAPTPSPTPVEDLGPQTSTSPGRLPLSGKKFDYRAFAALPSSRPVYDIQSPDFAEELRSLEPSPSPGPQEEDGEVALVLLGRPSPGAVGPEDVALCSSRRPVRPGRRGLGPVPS
UniProt P35222: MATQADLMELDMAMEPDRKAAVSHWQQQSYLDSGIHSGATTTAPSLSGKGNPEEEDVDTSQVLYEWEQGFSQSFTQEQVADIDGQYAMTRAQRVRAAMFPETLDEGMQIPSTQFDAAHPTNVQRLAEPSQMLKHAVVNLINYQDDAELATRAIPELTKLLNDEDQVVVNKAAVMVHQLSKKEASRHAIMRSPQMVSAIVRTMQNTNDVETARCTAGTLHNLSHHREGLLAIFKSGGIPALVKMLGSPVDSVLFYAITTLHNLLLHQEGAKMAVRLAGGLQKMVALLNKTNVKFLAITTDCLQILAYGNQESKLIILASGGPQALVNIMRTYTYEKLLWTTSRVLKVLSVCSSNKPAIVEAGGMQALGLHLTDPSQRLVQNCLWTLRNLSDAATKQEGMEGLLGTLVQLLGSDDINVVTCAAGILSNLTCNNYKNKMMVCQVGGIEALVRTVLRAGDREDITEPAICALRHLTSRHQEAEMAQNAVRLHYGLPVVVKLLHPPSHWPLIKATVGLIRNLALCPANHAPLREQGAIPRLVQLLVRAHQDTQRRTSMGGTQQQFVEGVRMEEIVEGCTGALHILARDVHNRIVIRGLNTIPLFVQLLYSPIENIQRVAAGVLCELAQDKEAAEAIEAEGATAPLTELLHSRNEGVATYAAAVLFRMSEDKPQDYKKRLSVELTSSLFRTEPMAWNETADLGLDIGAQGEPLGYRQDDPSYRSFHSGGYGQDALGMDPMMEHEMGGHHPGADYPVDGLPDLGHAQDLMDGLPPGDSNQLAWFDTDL
UniProt P35221: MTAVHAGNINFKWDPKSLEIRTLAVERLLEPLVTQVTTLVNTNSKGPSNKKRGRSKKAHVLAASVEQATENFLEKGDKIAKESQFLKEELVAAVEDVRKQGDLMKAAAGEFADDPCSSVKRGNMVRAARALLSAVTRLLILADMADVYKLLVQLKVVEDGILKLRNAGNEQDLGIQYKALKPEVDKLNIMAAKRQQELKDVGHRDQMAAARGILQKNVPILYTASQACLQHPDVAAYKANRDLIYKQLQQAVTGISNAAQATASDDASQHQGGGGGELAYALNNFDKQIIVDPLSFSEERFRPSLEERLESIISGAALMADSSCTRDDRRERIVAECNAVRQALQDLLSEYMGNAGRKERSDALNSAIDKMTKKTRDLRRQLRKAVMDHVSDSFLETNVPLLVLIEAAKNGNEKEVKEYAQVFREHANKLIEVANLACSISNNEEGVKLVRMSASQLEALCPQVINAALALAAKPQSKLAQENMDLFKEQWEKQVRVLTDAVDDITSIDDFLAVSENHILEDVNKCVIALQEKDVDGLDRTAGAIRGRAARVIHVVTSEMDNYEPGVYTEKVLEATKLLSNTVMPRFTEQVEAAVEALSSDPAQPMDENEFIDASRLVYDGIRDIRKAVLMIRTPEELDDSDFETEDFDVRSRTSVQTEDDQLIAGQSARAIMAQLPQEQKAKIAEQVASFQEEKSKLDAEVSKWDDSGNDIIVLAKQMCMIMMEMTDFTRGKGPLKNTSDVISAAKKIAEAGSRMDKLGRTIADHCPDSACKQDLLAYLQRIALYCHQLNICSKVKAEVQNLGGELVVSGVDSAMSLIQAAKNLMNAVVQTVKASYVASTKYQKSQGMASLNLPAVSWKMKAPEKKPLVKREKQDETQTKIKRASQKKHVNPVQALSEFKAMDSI

Neon-Lgl1-WT = target: T2, Neon-Lgl1-WT (UniProt Q80Y17)
T2 sequence: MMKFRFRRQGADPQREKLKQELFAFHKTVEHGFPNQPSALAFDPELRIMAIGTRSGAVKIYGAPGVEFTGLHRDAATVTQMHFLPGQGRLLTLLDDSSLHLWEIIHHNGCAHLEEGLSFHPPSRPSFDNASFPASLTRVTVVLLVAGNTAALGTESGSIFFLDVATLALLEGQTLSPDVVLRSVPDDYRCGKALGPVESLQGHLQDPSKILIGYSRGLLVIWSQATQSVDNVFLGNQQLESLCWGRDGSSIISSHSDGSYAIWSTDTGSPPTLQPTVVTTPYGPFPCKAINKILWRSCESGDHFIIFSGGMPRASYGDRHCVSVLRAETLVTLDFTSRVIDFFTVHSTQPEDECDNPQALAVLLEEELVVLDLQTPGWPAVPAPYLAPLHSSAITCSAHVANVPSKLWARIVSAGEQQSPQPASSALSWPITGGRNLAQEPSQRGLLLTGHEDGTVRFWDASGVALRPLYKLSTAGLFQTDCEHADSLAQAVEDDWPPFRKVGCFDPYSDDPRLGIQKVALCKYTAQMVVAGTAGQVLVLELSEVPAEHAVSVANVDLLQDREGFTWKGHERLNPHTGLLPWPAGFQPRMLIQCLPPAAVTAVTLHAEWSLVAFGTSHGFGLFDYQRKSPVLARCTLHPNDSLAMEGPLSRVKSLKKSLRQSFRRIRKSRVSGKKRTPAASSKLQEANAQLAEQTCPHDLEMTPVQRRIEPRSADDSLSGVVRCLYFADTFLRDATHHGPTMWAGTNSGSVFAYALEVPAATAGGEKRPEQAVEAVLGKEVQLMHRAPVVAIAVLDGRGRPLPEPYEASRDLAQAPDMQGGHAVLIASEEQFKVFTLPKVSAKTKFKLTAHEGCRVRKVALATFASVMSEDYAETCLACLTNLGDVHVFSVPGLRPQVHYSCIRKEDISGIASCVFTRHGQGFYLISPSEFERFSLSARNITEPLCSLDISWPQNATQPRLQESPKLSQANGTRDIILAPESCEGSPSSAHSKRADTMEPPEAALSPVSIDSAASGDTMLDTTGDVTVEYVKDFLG

[2] = target: Scribble (endogenous) (human (endogenous in A549)) (UniProt Q14160)
[3] = target: β-catenin (endogenous) (human (endogenous in A549)) (UniProt P35222)

binding [1]: binds
binding (Neon-Lgl1-WT): binds
binding [2]: binds
binding [3]: binds
Substance: α-catenin (endogenous) (from UniProt P35221 1-906)

Reference: paper PMC10761038
